Results are given in words; binding and its absence hold for the method and conditions named. Binding seen in cells or lysates may run through a third protein. Some binding calls cover weakened binding; strength is not graded here. Where a sequence is shown, tags or fusion partners need not be part of it.
T1: FLAG-UPF1 (wild-type) (human) (UniProt Q92900)
T1 sequence: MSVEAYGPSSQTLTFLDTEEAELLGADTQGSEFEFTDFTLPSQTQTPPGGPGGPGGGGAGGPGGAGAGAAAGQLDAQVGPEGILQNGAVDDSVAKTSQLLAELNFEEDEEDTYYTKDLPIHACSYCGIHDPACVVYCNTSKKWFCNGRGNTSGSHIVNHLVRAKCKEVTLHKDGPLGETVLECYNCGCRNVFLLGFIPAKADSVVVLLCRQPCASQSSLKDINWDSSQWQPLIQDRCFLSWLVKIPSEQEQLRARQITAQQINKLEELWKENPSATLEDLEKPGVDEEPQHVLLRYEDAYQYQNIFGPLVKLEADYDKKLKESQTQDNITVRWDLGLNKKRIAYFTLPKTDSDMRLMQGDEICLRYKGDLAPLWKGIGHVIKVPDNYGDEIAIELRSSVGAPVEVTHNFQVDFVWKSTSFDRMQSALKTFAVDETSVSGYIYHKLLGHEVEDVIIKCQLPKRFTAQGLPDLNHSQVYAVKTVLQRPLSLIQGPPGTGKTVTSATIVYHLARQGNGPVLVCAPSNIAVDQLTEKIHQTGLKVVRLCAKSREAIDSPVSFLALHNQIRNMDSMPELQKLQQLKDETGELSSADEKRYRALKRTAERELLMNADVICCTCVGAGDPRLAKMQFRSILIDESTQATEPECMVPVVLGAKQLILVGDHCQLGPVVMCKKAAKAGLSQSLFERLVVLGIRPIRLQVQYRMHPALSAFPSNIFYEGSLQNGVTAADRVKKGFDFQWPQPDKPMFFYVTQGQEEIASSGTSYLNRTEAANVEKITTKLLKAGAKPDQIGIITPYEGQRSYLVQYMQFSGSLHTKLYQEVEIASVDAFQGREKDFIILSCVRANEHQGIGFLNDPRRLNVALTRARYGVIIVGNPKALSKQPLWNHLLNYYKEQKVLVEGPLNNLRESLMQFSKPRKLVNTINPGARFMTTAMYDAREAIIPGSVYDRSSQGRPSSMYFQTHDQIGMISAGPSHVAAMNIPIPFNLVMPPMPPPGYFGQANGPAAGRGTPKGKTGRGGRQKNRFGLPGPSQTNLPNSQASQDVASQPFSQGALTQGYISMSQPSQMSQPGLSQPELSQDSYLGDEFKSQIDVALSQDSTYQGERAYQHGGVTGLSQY

Chains of the proteins cited; added tags and fusions are not shown.
UniProt Q96Q15: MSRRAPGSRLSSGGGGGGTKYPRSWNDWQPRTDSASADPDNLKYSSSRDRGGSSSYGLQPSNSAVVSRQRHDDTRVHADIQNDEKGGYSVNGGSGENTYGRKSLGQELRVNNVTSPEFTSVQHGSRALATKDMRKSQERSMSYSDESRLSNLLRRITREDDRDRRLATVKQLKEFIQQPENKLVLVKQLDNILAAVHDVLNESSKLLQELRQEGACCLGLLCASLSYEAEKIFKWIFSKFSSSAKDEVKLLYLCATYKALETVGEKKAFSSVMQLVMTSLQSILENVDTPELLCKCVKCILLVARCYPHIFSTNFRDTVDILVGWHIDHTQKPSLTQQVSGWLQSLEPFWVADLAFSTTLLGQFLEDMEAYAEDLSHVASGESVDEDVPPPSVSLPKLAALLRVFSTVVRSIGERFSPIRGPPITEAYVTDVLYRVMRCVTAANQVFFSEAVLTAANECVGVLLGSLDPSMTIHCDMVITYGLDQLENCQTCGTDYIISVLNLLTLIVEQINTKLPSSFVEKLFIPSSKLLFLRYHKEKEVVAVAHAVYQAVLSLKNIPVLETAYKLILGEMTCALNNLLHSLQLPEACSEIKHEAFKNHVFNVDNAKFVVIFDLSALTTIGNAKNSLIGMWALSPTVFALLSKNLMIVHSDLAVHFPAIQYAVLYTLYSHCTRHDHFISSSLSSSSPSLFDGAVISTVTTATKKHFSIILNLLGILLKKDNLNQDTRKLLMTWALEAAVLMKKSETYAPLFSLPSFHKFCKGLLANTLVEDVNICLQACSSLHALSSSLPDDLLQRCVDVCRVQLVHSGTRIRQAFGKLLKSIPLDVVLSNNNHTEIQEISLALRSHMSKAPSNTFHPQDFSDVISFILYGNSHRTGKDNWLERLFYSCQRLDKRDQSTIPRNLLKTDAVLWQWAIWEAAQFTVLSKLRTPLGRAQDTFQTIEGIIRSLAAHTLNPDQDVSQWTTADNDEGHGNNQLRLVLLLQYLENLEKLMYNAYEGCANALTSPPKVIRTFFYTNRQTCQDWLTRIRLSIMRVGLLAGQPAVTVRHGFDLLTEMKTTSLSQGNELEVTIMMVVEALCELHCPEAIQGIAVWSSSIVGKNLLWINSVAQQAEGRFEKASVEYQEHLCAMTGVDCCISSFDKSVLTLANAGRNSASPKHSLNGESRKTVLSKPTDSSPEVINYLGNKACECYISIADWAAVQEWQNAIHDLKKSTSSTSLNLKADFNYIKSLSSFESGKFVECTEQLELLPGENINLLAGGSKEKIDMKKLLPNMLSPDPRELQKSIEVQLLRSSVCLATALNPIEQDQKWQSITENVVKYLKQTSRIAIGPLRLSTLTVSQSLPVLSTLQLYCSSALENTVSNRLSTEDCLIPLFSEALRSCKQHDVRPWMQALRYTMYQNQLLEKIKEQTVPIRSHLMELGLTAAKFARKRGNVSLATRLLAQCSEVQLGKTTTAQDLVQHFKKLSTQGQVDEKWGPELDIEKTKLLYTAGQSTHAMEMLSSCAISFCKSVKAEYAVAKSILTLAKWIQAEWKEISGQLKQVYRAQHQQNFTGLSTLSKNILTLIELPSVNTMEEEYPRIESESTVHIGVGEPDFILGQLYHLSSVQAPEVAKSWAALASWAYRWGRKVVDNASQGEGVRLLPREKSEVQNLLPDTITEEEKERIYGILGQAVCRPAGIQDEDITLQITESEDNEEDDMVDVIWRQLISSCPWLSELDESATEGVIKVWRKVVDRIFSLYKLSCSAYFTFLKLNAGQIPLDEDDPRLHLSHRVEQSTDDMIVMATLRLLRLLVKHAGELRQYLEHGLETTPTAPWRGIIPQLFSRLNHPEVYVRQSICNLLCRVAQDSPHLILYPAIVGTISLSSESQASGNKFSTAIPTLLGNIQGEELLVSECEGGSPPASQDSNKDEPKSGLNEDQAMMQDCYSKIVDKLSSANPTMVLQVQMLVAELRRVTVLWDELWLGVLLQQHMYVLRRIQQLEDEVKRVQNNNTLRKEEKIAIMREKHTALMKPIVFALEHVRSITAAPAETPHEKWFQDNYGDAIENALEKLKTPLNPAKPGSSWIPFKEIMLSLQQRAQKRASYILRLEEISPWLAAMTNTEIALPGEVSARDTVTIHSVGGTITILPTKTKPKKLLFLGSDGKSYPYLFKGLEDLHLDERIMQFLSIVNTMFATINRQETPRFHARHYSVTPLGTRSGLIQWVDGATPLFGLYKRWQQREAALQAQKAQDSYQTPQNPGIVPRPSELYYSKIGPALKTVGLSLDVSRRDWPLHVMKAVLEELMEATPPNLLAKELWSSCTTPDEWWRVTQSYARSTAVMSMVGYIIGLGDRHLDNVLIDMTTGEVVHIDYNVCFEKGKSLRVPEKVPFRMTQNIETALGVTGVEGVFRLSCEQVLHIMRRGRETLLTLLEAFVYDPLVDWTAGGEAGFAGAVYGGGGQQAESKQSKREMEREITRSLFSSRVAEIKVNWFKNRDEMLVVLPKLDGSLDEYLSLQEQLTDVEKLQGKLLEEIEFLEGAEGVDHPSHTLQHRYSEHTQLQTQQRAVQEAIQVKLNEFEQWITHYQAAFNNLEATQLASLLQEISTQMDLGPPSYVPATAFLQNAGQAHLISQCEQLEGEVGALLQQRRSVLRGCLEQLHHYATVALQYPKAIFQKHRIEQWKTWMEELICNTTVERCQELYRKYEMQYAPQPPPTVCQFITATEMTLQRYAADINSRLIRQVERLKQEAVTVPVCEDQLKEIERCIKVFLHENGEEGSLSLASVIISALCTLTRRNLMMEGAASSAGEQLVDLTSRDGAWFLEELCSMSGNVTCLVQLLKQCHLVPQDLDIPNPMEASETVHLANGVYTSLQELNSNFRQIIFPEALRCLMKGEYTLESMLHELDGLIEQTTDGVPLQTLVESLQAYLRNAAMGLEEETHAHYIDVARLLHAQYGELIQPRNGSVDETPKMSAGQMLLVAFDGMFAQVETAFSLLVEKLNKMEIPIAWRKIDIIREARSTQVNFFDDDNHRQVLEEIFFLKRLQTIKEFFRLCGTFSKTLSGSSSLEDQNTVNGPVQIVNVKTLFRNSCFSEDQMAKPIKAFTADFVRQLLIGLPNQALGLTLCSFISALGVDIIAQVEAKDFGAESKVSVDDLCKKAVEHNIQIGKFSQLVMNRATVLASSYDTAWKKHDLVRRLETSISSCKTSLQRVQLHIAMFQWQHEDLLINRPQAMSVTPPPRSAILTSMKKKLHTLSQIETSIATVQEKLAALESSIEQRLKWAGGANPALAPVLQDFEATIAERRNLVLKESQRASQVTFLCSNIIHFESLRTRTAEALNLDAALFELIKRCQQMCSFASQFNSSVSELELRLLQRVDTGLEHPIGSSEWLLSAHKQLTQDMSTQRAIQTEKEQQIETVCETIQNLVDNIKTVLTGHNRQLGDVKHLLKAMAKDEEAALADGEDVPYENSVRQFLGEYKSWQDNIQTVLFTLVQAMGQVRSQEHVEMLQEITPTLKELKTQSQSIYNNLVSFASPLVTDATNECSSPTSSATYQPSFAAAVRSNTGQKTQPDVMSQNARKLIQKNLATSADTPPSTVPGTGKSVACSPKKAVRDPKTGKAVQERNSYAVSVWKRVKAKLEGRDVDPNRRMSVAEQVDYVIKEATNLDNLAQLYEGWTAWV

T2: FLAG-UPF1 C126S (human) (UniProt Q92900)
T2 sequence: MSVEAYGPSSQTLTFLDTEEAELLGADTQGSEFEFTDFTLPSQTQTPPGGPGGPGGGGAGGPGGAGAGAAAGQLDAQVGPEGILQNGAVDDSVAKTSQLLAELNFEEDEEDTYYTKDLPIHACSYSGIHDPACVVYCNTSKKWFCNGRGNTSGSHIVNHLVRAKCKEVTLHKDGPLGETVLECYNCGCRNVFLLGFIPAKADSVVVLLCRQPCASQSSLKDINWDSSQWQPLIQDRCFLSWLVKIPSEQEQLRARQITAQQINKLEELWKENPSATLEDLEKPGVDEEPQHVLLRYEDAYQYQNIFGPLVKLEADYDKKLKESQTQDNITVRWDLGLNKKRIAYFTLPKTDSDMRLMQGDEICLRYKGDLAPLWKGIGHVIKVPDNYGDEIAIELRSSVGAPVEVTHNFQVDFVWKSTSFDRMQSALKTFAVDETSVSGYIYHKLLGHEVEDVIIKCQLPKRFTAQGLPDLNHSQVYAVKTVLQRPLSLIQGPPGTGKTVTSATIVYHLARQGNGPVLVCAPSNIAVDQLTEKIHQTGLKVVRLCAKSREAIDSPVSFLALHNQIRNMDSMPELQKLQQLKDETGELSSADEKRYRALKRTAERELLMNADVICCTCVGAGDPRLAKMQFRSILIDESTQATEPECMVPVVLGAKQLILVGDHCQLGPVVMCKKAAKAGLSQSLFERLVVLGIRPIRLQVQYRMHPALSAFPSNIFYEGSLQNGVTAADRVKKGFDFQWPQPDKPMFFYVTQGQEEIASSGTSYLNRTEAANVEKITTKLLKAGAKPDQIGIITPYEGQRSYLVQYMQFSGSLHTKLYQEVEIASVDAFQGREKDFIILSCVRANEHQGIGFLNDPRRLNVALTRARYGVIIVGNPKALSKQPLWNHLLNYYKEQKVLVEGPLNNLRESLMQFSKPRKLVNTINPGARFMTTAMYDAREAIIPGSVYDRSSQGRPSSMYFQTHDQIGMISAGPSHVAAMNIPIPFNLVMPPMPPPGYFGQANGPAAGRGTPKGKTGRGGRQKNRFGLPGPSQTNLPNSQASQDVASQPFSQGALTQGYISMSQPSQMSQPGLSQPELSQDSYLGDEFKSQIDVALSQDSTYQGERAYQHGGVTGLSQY


Assays:
[1] = biological target: T1, FLAG-UPF1 (wild-type) (human); experiment: co-IP; anti-FLAG IP of transiently transfected FLAG-UPF1 (wild-type or mutants) from HEK293T lysate; endogenous partners by western blot; in the absence or presence of RNase A (Figures 2B, S2B); cells also depleted of DHX34 by shRNA, rescued with T7-DHX34, or cotransfected with T7-DHX34
FLAG-UPF1 C126S (human) = biological target: T2, FLAG-UPF1 C126S (human); experiment: co-IP; anti-FLAG IP from HEK293T cells cotransfected with FLAG-UPF1 (wild-type or mutants) and T7-DHX34 (wild-type or ATPase mutants); RNase A in Figure 3C; T7-DHX34 by western blot

binding [1] | binding (FLAG-UPF1 C126S (human)) | Molecule
binds | – | SMG1 (from UniProt Q96Q15 1-3661)
– | binds | T7-DHX34 (wild-type) (protein, UniProt Q14147 1-1143) MPPPRTREGRDRRDHHRAPSEEEALEKWDWNCPETRRLLEDAFFREEDYIRQGSEECQKFWTFFERLQRFQNLKTSRKEEKDPGQPKHSIPALADLPRTYDPRYRINLSVLGPATRGSQGLGRHLPAERVAEFRRALLHYLDFGQKQAFGRLAKLQRERAALPIAQYGNRILQTLKEHQVVVVAGDTGCGKSTQVPQYLLAAGFSHVACTQPRRIACISLAKRVGFESLSQYGSQVGYQIRFESTRSAATKIVFLTVGLLLRQIQREPSLPQYEVLIVDEVHERHLHNDFLLGVLQRLLPTRPDLKVILMSATINISLFSSYFSNAPVVQVPGRLFPITVVYQPQEAEPTTSKSEKLDPRPFLRVLESIDHKYPPEERGDLLVFLSGMAEISAVLEAAQTYASHTQRWVVLPLHSALSVADQDKVFDVAPPGVRKCILSTNIAETSVTIDGIRFVVDSGKVKEMSYDPQAKLQRLQEFWISQASAEQRKGRAGRTGPGVCFRLYAESDYDAFAPYPVPEIRRVALDSLVLQMKSMSVGDPRTFPFIEPPPPASLETAILYLRDQGALDSSEALTPIGSLLAQLPVDVVIGKMLILGSMFSLVEPVLTIAAALSVQSPFTRSAQSSPECAAARRPLESDQGDPFTLFNVFNAWVQVKSERSRNSRKWCRRRGIEEHRLYEMANLRRQFKELLEDHGLLAGAQAAQVGDSYSRLQQRRERRALHQLKRQHEEGAGRRRKVLRLQEEQDGGSSDEDRAGPAPPGASDGVDIQDVKFKLRHDLAQLQAAASSAQDLSREQLALLKLVLGRGLYPQLAVPDAFNSSRKDSDQIFHTQAKQGAVLHPTCVFAGSPEVLHAQELEASNCDGSRDDKDKMSSKHQLLSFVSLLETNKPYLVNCVRIPALQSLLLFSRSLDTNGDCSRLVADGWLELQLADSESAIRLLAASLRLRARWESALDRQLAHQAQQQLEEEEEDTPVSPKEVATLSKELLQFTASKIPYSLRRLTGLEVQNMYVGPQTIPATPHLPGLFGSSTLSPHPTKGGYAVTDFLTYNCLTNDTDLYSDCLRTFWTCPHCGLHAPLTPLERIAHENTCPQAPQDGPPGAEEAALETLQKTSVLQRPYHCEACGKDFLFTPTEVLRHRKQHV
